Reference: PubChem BioAssay AID485344 (National Center for Advancing Translational Sciences (NCATS), 2010)
The whole screen tested about 340,000 compounds, of which about 6,900 (2%) were called active. Cut-off read from the data, not from the text of the source: active = inhibition above about 30%; inactive = below that, where a call was filed. This is a selection; strong and weak results do not stand in their true shares. Where no call is shown, the source filed none.

Biological target: D(2) dopamine receptor (Homo sapiens) (UniProt P14416)
UniProt P14416, sequence (P14416 whole entry, looked up): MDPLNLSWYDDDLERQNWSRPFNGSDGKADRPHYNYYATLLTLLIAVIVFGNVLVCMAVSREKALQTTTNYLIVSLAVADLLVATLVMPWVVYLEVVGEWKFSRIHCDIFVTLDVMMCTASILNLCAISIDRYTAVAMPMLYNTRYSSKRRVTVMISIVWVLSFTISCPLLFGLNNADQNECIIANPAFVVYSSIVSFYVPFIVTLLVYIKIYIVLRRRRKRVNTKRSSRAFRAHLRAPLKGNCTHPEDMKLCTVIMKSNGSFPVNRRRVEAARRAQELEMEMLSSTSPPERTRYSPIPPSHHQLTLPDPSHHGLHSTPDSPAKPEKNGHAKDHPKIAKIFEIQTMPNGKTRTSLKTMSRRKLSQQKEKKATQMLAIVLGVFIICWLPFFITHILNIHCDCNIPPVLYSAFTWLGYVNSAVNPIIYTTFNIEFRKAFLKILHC
Experiment: HTS Assay for Allosteric Antagonists of the Human D2 Dopamine Receptor: Primary Screen for Antagonists; note: 0% is about no effect
Details: HEK293 TREx D2 cells, calcium flux, dopamine EC80; at 10 µM; stronger effect = higher value
Procedure, shortened: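 Dopamine at EC80 is the agonist stimulus; test compounds precede it by 180 s. Calcium flux read kinetically in a force-coupled, inducible HEK293 T-REx D2 cell line.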

Compound	inhibition
Clc1ccc(N2CCN(Cc3nnc(-c4ccc5c(c4)OCO5)o3)CC2)cc1	0.374%
CN(Cc1ccccc1)CC(O)COc1ccc(CNCCOc2cccnc2)cc1 (stereo unspecified)	active: 82.9%
COc1ccc(-c2cccc(NS(=O)(=O)c3cccs3)c2)nn1	-9.91%
CN(C)CCOC(=O)C(c1ccccc1)C1(O)CCCC1 (stereo unspecified)	active: 58.6%
CCCOc1ccc(/C=C/C(=O)Nc2sc3c(c2C(=O)OCC)CCC(C)C3)cc1OC (stereo unspecified)	-13.5%
CC(=O)c1cc(-c2ccc(F)cc2)n(CC(=O)NC2CCCCCC2)c1C	-21.5%
COc1ccc(NC(=O)c2ccco2)cc1NC(=O)C(C)Oc1ccc(Cl)cc1Cl (stereo unspecified)	23.8%
CCOc1ccc(CCNC(=O)CN2C(=O)c3cccnc3Oc3ccc(C)cc32)cc1OCC	23.6%
COc1cccc(CNS(=O)(=O)c2c(C)nc3scc(C)n3c2=O)c1	17.9%
O=C(Nc1cccc(C(F)(F)F)c1)c1cc2nc(-c3ccccc3)cc(C(F)(F)F)n2n1	-5.87%
CCCOc1ccc(-c2cccc(NS(=O)(=O)c3cccs3)c2)nn1	-4.23%
COc1ccc(-c2onc(C)c2C)cc1S(=O)(=O)Nc1ccc(OC(F)(F)F)cc1	-1.91%
CN(C(=O)COC(=O)c1cc(F)c(F)cc1Cl)c1ccccc1	active: 31.6%
Cc1ccc(CSc2oc(-c3ccco3)nc2S(=O)(=O)c2ccc(Cl)cc2)cc1	-1.42%
CCOC(=O)c1cccc(NC(=O)c2cc(S(=O)(=O)N3CCCC3)cn2C)c1	3.56%
CCOC(=O)CNC(=O)c1cc2c(=O)n(CC)c3ccccc3c2s1	4.12%
COC(=O)c1cc2sc(C)cc2n1Cc1ccccc1	10.2%
Cc1ccc(CNC(=O)CSc2ccc(-c3sc(-c4ccccc4)nc3C)nn2)cc1	-22%
CCn1cc(C(=O)O)c(=O)c2cc(F)c(N/N=C/c3ccccc3[N+](=O)[O-])cc21	active: 30%
CCCOC(=O)c1ccc(NC(=O)Cn2nnc3sc4c(c3c2=O)CCC(C(C)(C)C)C4)cc1 (stereo unspecified)	7.03%
COc1ccc(-c2cn3nc(N4CCC(C(=O)NCc5ccc(F)cc5)CC4)sc3n2)cc1	4.99%

Compound	inhibition
COc1cc(C(=O)N(Cc2cccnc2)Cc2cc3cc4c(cc3[nH]c2=O)OCCO4)cc(OC)c1OC	active: 36.8%
Cc1ccc(C2=NN(CC(=O)NC(C)c3ccccc3)C(=O)CC2)cc1 (stereo unspecified)	-0.897%
CCOC(=O)c1c(NC(=O)COc2cccc(C)c2C)sc2c1CCCCC2	10.5%
COc1ccc(NC(=O)C2CCC(CNS(=O)(=O)c3csc(C(N)=O)c3)CC2)cc1 (stereo unspecified)	-3.9%
CC(C)c1ccc(Nc2c(-c3ccc(N4CCOCC4)cc3)nc3ncccn23)cc1	-13.2%
CC(=O)CC(C)(C)Nc1nc2ccc([N+](=O)[O-])cc2o1	active: 38.6%
COc1ccc(Nc2ncnc3onc(-c4ccc(Cl)cc4)c23)cc1Cl	-27.9%
CCCCn1c(SCC(=O)Nc2cccc(OC)c2)nc2ccsc2c1=O	-2.79%
Cc1ccc(NC(=O)c2cn(-c3ccccc3)nc2-c2ccccc2)cc1	-22.9%
O=C(NCc1ccccc1)c1ccc(NC(=O)N2CCSc3ncccc32)cc1	5.67%
COc1ccc(-n2cc(-c3ccccc3)c3c(NCc4cccc(Cl)c4)ncnc32)cc1	23.8%
COc1cc(OC)c(NC(=O)c2cnn(-c3cccc(Cl)c3C)c2C2CCN(C(=O)OC(C)(C)C)CC2)cc1Cl	3.58%
COc1ccccc1NC(=O)c1c(C)cc(C)nc1SCC(=O)Nc1cccc(C)c1	23.2%
COCCNC(=O)CCn1c(=O)c2cc(OC)c(OC)cc2n(CC(=O)Nc2ccccc2OC)c1=O	2.12%
Cc1ccc(-n2nc(C)c3c(C)cc(=O)n(CC(=O)NC(C)C)c32)cc1	11.2%
CCN(CC)CCOC(=O)c1ccc(NC(=O)CSc2cc(=O)n(CC)c3ccccc23)cc1	14.4%
CCc1cccc(CC)c1N(COC)C(=O)Cn1c(C)nc2ccccc21	-3.33%
O=C(Nc1ccc(F)c(Cl)c1)C1Cc2ccccc2CN1S(=O)(=O)c1ccc(F)cc1 (stereo unspecified)	3.36%
CCc1nn(CC(=O)Nc2ccc(C)cc2C)c(=O)c2cc3sccc3n12	11.7%
Cc1ccc(Cn2ccn(Cc3cccc(C(F)(F)F)c3)c(=O)c2=O)cc1	-10.7%
COc1cccc(NC(=O)CSc2nc3c([nH]c4ccccc43)c(=O)n2-c2cccc(Cl)c2)c1	-23%

Compound	inhibition
CCOC(=O)c1ccc(NC(=O)CSc2nc(C)c(Cc3ccccc3)c(=O)[nH]2)cc1	-1.91%
Cc1ccc(-c2ccc(=O)n(CC(=O)Nc3ccc(C(C)C)cc3)n2)cc1	2.26%
C=CCOc1ccc(C2c3c(oc4ccc(C)cc4c3=O)C(=O)N2CCCN2CCOCC2)cc1 (stereo unspecified)	-2.84%
COc1ccccc1N=c1scc(-c2ccc(S(=O)(=O)N3CCCC3)cc2)n1C	-4.86%
COc1ccccc1CNC(=O)CCNS(=O)(=O)c1cccc2nsnc12	-6.79%
COc1cccc(NC(=O)N2CCN(C(=O)c3nsc4ccccc34)CC2)c1	-10.2%
Cc1nc2c(c(C)nn2-c2ccccc2)c(C)c1CCC(=O)NCCc1ccc(Cl)cc1	-3.86%
CCCc1cc(=O)[nH]c(SC(C)C(=O)N2c3ccccc3CC2C)n1 (stereo unspecified)	active: 44%
COc1ccc(NC(=O)N2CCN3CCCCC3C2)cc1OC (stereo unspecified)	3.83%
COc1cc(C2NC(=O)c3c(sc4c3CCN(C)C4)N2)ccc1OC(=O)c1ccccc1 (stereo unspecified)	-1.29%
Cc1c(NC(=O)c2ccc(Br)o2)cccc1-c1nc2ccccc2o1	7.07%
Cc1cccc(C)c1NC(=O)CCS(=O)(=O)c1cccc2nonc12	-8.32%
CCCOc1cccc(C(=O)Nc2ccc(-c3cc4ccccc4oc3=O)c(C)c2)c1	1.34%
CCOc1ccccc1NC(=O)c1cc2c(=O)n(Cc3cccnc3)ccc2nc1C	6.5%
CCOC(=O)c1ccc(NC2=CC(c3ccc(F)cc3)N(c3ccc(C(=O)OCC)cc3)C2=O)cc1 (stereo unspecified)	10.4%
Cc1ccccc1Cn1c(SCc2ccc(C(=O)NC3CCCC3)cc2)nc2ccncc21	2.01%
CC(=O)Nc1ccc(Nc2ncnc3c2c(-c2ccccc2)cn3-c2ccc(C)c(Cl)c2)cc1	5.37%
CCOC(=O)c1c(C)[nH]c(C)c1S(=O)(=O)N1CCC(C(=O)Nc2ccc(C)c(Cl)c2)CC1	5.35%
Cc1ccc(NC(=O)C2CCCN(c3cnccn3)C2)c(C)c1 (stereo unspecified)	-6.08%
